Experimental data: the antibiotic and cytotoxicity screens of Wong et al. (2023)
The list shows a part of the results.

How the values were obtained:
HSkMC = human skeletal muscle cells; test: cytotoxicity call (relative viability < 0.9); conditions: 10 µM
HepG2 = test: cytotoxicity call (relative viability < 0.9); conditions: 10 µM
S. aureus RN4220 = test: growth inhibition call (relative growth <= 0.2); conditions: 50 µM

Structure (SMILES): O=C(CCCCCNC(=O)OCc1ccc(CO[C@@H]2C[C@H](C3CCCCC3)C=C(C(=O)N3CCN(Cc4ccc5c(c4)OCO5)CC3)O2)cc1)NO
- cytotoxicity call (HSkMC): inactive
- cytotoxicity call (HepG2): inactive
- growth inhibition call (S. aureus RN4220): inactive

Structure (SMILES): C[C@@H]1CN([C@@H](C)CO)C(=O)c2cc(NC(=O)Nc3ccc4c(c3)OCO4)ccc2O[C@@H](C)CCCCO[C@H]1CN(C)C(=O)Nc1cccc2ccccc12
- cytotoxicity call (HSkMC): inactive
- cytotoxicity call (HepG2): inactive
- growth inhibition call (S. aureus RN4220): inactive

Structure (SMILES): Oc1ccc([C@H]2CNCCN2)cc1
- cytotoxicity call (HSkMC): inactive
- cytotoxicity call (HepG2): inactive
- growth inhibition call (S. aureus RN4220): inactive

Structure (SMILES): C[C@@H]1CCCCO[C@H](CN(C)Cc2ccc(Cl)c(Cl)c2)[C@H](C)CN([C@@H](C)CO)C(=O)c2cc(NC(=O)Nc3ccc4c(c3)OCO4)ccc2O1
- cytotoxicity call (HSkMC): active
- cytotoxicity call (HepG2): active
- growth inhibition call (S. aureus RN4220): inactive

Structure (SMILES): COc1ccc(NC(=O)N[C@H]2CC[C@H](CCNC(=O)CN3CCOCC3)O[C@@H]2CO)cc1
- cytotoxicity call (HSkMC): inactive
- cytotoxicity call (HepG2): inactive
- growth inhibition call (S. aureus RN4220): inactive

Structure (SMILES): COc1ccc(NC(=O)Nc2cccc3c2O[C@H](CN(C)S(=O)(=O)c2cn(C)cn2)[C@@H](C)CN([C@@H](C)CO)C3=O)cc1
- cytotoxicity call (HSkMC): inactive
- cytotoxicity call (HepG2): inactive
- growth inhibition call (S. aureus RN4220): inactive

Structure (SMILES): CN(C)[C@@H]1C(=O)[C@@H](C(N)=O)C(=O)[C@@]2(O)C(=O)[C@H]3C(=O)c4c(O)cccc4C[C@H]3C[C@@H]12
- cytotoxicity call (HSkMC): inactive
- cytotoxicity call (HepG2): inactive
- growth inhibition call (S. aureus RN4220): inactive

Structure (SMILES): C[C@@H]1CCCCO[C@@H](CN(C)C(=O)Nc2cccc3ccccc23)[C@H](C)CN([C@H](C)CO)C(=O)c2cc(NS(=O)(=O)c3ccccc3)ccc2O1
- cytotoxicity call (HSkMC): inactive
- cytotoxicity call (HepG2): active
- growth inhibition call (S. aureus RN4220): inactive

Structure (SMILES): CCC1NC(=O)c2cc(S(N)(=O)=O)c(Cl)cc2N1 (stereo unspecified)
- cytotoxicity call (HSkMC): inactive
- cytotoxicity call (HepG2): inactive
- growth inhibition call (S. aureus RN4220): inactive

Structure (SMILES): C[C@@H]1CCCCO[C@@H](CN(C)C(=O)Nc2ccc(C(F)(F)F)cc2)[C@@H](C)CN([C@H](C)CO)C(=O)c2cc(NS(=O)(=O)c3ccccc3)ccc2O1
- cytotoxicity call (HSkMC): inactive
- cytotoxicity call (HepG2): active
- growth inhibition call (S. aureus RN4220): inactive

Structure (SMILES): C[C@@H]1CN([C@@H](C)CO)C(=O)Cc2cc(NS(=O)(=O)c3cn(C)cn3)ccc2O[C@@H]1CN(C)C(=O)Nc1ccccc1
- cytotoxicity call (HSkMC): inactive
- cytotoxicity call (HepG2): inactive
- growth inhibition call (S. aureus RN4220): inactive

Structure (SMILES): NCc1ccc(-n2cncn2)cc1
- cytotoxicity call (HSkMC): inactive
- cytotoxicity call (HepG2): inactive
- growth inhibition call (S. aureus RN4220): inactive

Structure (SMILES): Cc1ccc(S(=O)(=O)Nc2ccc3c(c2)C(=O)N([C@@H](C)CO)C[C@@H](C)[C@@H](CN(C)S(=O)(=O)c2ccc(F)cc2)OCCCC[C@@H](C)O3)cc1
- cytotoxicity call (HSkMC): inactive
- cytotoxicity call (HepG2): inactive
- growth inhibition call (S. aureus RN4220): inactive

Structure (SMILES): COc1ccc(NC(=O)N(C)C[C@@H]2OCCCC[C@@H](C)Oc3ccc(NS(=O)(=O)c4c(C)noc4C)cc3C(=O)N([C@H](C)CO)C[C@@H]2C)cc1
- cytotoxicity call (HSkMC): inactive
- cytotoxicity call (HepG2): inactive
- growth inhibition call (S. aureus RN4220): inactive

Structure (SMILES): O=C(C[C@@H]1CC[C@@H]2[C@H](COC[C@@H](O)CN2C(=O)c2ccccc2F)O1)N1CCN(c2ccccc2)CC1
- cytotoxicity call (HSkMC): inactive
- cytotoxicity call (HepG2): inactive
- growth inhibition call (S. aureus RN4220): inactive

Structure (SMILES): COc1ccccc1-c1cccc(-c2nc(C(=O)NCc3ccncc3)cc3c2[C@@H](CCO)N([S@@](=O)C(C)(C)C)C3)c1
- cytotoxicity call (HSkMC): inactive
- cytotoxicity call (HepG2): inactive
- growth inhibition call (S. aureus RN4220): inactive

Structure (SMILES): C[C@@H]1CN([C@H](C)CO)C(=O)Cc2cc(NC(=O)Nc3cccc4ccccc34)ccc2O[C@@H]1CN(C)Cc1ccc(C(=O)Nc2ccccc2N)cc1
- cytotoxicity call (HSkMC): inactive
- cytotoxicity call (HepG2): inactive
- growth inhibition call (S. aureus RN4220): inactive

Structure (SMILES): C[C@@H]1CN([C@H](C)CO)S(=O)(=O)c2ccc(Br)cc2O[C@H]1CN(C)C(=O)C1CCCCC1
- cytotoxicity call (HSkMC): inactive
- cytotoxicity call (HepG2): inactive
- growth inhibition call (S. aureus RN4220): inactive

Structure (SMILES): C[C@H](CO)N1C[C@H](C)[C@H](CN(C)C(=O)Cc2ccccn2)Oc2ncc(-c3cccc(C(=O)N(C)C)c3)cc2C1=O
- cytotoxicity call (HSkMC): inactive
- cytotoxicity call (HepG2): inactive
- growth inhibition call (S. aureus RN4220): inactive

Structure (SMILES): C/C=C/c1ccc2c(c1)O[C@H](CN(C)Cc1ccc(C(=O)O)cc1)[C@H](C)CN([C@@H](C)CO)S2(=O)=O
- cytotoxicity call (HSkMC): inactive
- cytotoxicity call (HepG2): inactive
- growth inhibition call (S. aureus RN4220): inactive

Structure (SMILES): NNC(=O)Cn1nnc(N2CCCC2)n1
- cytotoxicity call (HSkMC): inactive
- cytotoxicity call (HepG2): inactive
- growth inhibition call (S. aureus RN4220): inactive

Structure (SMILES): C[C@@H]1CCCCO[C@H](CN(C)S(=O)(=O)c2ccc(F)cc2)[C@@H](C)CN([C@H](C)CO)C(=O)c2cc(NS(C)(=O)=O)ccc2O1
- cytotoxicity call (HSkMC): inactive
- cytotoxicity call (HepG2): inactive
- growth inhibition call (S. aureus RN4220): inactive

Structure (SMILES): CO[C@@H]1CN(C)C(=O)c2cc(NS(=O)(=O)CC(F)(F)F)ccc2OC[C@H](C)N(C(=O)c2ccc3c(c2)OCO3)C[C@H]1C
- cytotoxicity call (HSkMC): inactive
- cytotoxicity call (HepG2): inactive
- growth inhibition call (S. aureus RN4220): inactive

Structure (SMILES): CCc1nc2ccc(C(=O)N3CCN(C(=O)c4ccco4)CC3)cn2c1N(C)C(=O)c1cccc(OC)c1
- cytotoxicity call (HSkMC): inactive
- cytotoxicity call (HepG2): inactive
- growth inhibition call (S. aureus RN4220): inactive

Structure (SMILES): CC1=C(CC(=O)O)c2cc(F)ccc2C1=Cc1ccc(S(C)=O)cc1 (stereo unspecified)
- cytotoxicity call (HSkMC): inactive
- cytotoxicity call (HepG2): inactive
- growth inhibition call (S. aureus RN4220): inactive

Structure (SMILES): Cc1noc(C)c1NC(=O)N[C@@H]1CC[C@@H](CC(=O)N2CCN(C)CC2)O[C@@H]1CO
- cytotoxicity call (HSkMC): inactive
- cytotoxicity call (HepG2): inactive
- growth inhibition call (S. aureus RN4220): inactive

Structure (SMILES): Cc1noc(C2CNC2)n1
- cytotoxicity call (HSkMC): inactive
- cytotoxicity call (HepG2): inactive
- growth inhibition call (S. aureus RN4220): inactive
